Sequences with one replicate were seen in a single cluster, so their values are uncertain.
What follows are sequences tested on ATP (assay: switch fluorescence ratio, 500 uM ATP over buffer (Cy3 cluster intensity, sum of 5 cycles each) (fold (ratio)); higher = stronger signal-on switching upon ATP binding; sequences stand for … in TCGTCGGCAGCGTCAGATGTGTATAAGAGACAGTTTTTTTTTTTTTTTTTTTTTTTTT…TC). Conditions: aptamer strand: ATP DNA aptamer (quencher-CACCTGGGGGAGTATTGCGGAGGAAGG + anchor), 100 nM annealed; ATP concentration: 500 uM; one replicate.
Procedure, shortened: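 Between each of five buffer/ATP cycles, the flow-cell was stripped with NaOH and re-annealed. Each cycle imaged Cy3-labelled switching-strand clusters, annealed to 100 nM quencher-labelled ATP aptamer on a modified Illumina MiSeq flow-cell, first in selection buffer and then after 15 min with 500 uM ATP at 22 °C. The fluorescence ratio is summed target-cycle over summed buffer-cycle Cy3 intensity per cluster, averaged per switch-domain sequence, with clusters outside 100-1000 RFU excluded.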
For TGATCTGATA, the switch fluorescence ratio was 1.02. In the case of TGATCTGCTA, the switch fluorescence ratio is reported as 0.992. For TGATGAACGA, the switch fluorescence ratio was 1.04. TGATGAAGGG was tested, and the switch fluorescence ratio was 1.01. With TGATGACCCC the switch fluorescence ratio was 1.2. Sequence TGATGAGGGC has a switch fluorescence ratio of 1.1. TGATGCAGCC was tested, and the switch fluorescence ratio was 1.06. TGATGCTGGG showed a switch fluorescence ratio of 1.02. TGATGGACAT gave a switch fluorescence ratio of 1.03. TGATGGATGG was tested, and the switch fluorescence ratio was 0.978. TGATGGCAAA was tested, and the switch fluorescence ratio was 1.48. With TGATGGGTA the switch fluorescence ratio was 1.02. TGATGTACAG showed a switch fluorescence ratio of 1.01. TGATGTCTCC was tested, and the switch fluorescence ratio was 1.08. TGATGTGCAG showed a switch fluorescence ratio of 1.03. TGATGTGTGG was tested, and the switch fluorescence ratio was 0.951. Sequence TGATGTTGGG has a switch fluorescence ratio of 0.982. In the case of TGATTAAGGC, the switch fluorescence ratio is reported as 0.949. TGATTACTGC was tested, and the switch fluorescence ratio was 0.939. Work on TGATTCACAT yielded a switch fluorescence ratio of 1.03. TGATTCGCCT was tested, and the switch fluorescence ratio was 1.09. TGATTGAATC gave a switch fluorescence ratio of 1.02. In the case of TGATTGCTAG, the switch fluorescence ratio is reported as 1.01. TGATTGTTAC was tested, and the switch fluorescence ratio was 1. Work on TGATTTTTA yielded a switch fluorescence ratio of 0.956. TGCAAAGGTA gave a switch fluorescence ratio of 0.986. TGCAACAAGG was tested, and the switch fluorescence ratio was 1.05. TGCAACTTT showed a switch fluorescence ratio of 1.11. TGCAAGGAAA gave a switch fluorescence ratio of 1.02. Work on TGCAAGTATG yielded a switch fluorescence ratio of 1.1. TGCAAT showed a switch fluorescence ratio of 1.36. TGCAATGCCA showed a switch fluorescence ratio of 0.978. TGCACAAGGA was tested, and the switch fluorescence ratio was 1.05. Work on TGCACGCGTC yielded a switch fluorescence ratio of 1.06. For TGCACGTAAG, the switch fluorescence ratio was 1.05. With TGCACGTCCA the switch fluorescence ratio was 1.08. For TGCACTAAGT, the switch fluorescence ratio was 1.01. TGCACTCTTG showed a switch fluorescence ratio of 1.07. Work on TGCAGAAGCT yielded a switch fluorescence ratio of 1.03. TGCAGACAGC gave a switch fluorescence ratio of 1.01. Sequence TGCAGATGAC has a switch fluorescence ratio of 1.08. With TGCAGATTAG the switch fluorescence ratio was 1.1. With TGCAGCAAGG the switch fluorescence ratio was 1.83. TGCAGCGGGC showed a switch fluorescence ratio of 1.14. With TGCAGGCCTG the switch fluorescence ratio was 0.998. With TGCAGGTTCT the switch fluorescence ratio was 0.998. TGCAGGTTTA showed a switch fluorescence ratio of 0.976. In the case of TGCAGTAGTC, the switch fluorescence ratio is reported as 1.2. TGCAGTCGAA was tested, and the switch fluorescence ratio was 1.02. TGCATATCCG gave a switch fluorescence ratio of 1. TGCATATTTC showed a switch fluorescence ratio of 1.05. For TGCATCGGGC, the switch fluorescence ratio was 1.01. With TGCATGAACT the switch fluorescence ratio was 1.05. Sequence TGCATGAGCA has a switch fluorescence ratio of 1.07. TGCATGTCCC was tested, and the switch fluorescence ratio was 1.31. TGCCAAAAAT showed a switch fluorescence ratio of 0.952. Sequence TGCCAGAGGA has a switch fluorescence ratio of 0.97. TGCCAGTGC was tested, and the switch fluorescence ratio was 2.15. Work on TGCCATTATG yielded a switch fluorescence ratio of 1.04. Work on TGCCCATTTG yielded a switch fluorescence ratio of 0.988. With TGCCCGTAGC the switch fluorescence ratio was 1.18. Sequence TGCCCGTTGT has a switch fluorescence ratio of 0.996. Work on TGCCCTGCGG yielded a switch fluorescence ratio of 1.02. In the case of TGCCGATAGT, the switch fluorescence ratio is reported as 1.03. TGCCGCCATA gave a switch fluorescence ratio of 1.23. With TGCCGCGGGG the switch fluorescence ratio was 1.04. In the case of TGCCGGATAG, the switch fluorescence ratio is reported as 1.01. TGCCGGCCTG was tested, and the switch fluorescence ratio was 1.02. Sequence TGCCGTAAC has a switch fluorescence ratio of 1.51. TGCCGTTACA gave a switch fluorescence ratio of 1. TGCCGTTCAC was tested, and the switch fluorescence ratio was 0.974. TGCCTATCAA was tested, and the switch fluorescence ratio was 1.02. TGCCTATTTG was tested, and the switch fluorescence ratio was 1. For TGCCTCATGT, the switch fluorescence ratio was 0.977. With TGCCTCGCGA the switch fluorescence ratio was 2.04. TGCCTCGCGC gave a switch fluorescence ratio of 1.01. Sequence TGCCTGCGGT has a switch fluorescence ratio of 0.983. Sequence TGCGAAAAAT has a switch fluorescence ratio of 1.02. With TGCGAATATT the switch fluorescence ratio was 1.01. With TGCGAATGGC the switch fluorescence ratio was 1.06. In the case of TGCGACTAGT, the switch fluorescence ratio is reported as 1.03. With TGCGAGAAGA the switch fluorescence ratio was 0.983. For TGCGAGGATT, the switch fluorescence ratio was 1. Work on TGCGATACTG yielded a switch fluorescence ratio of 1.78. For TGCGCAAGTA, the switch fluorescence ratio was 1.1. For TGCGCACACA, the switch fluorescence ratio was 1.04. Work on TGCGCACTTA yielded a switch fluorescence ratio of 1.01. TGCGCCAACC gave a switch fluorescence ratio of 0.974. TGCGCCCTTT was tested, and the switch fluorescence ratio was 1.03. TGCGCGGGGG was tested, and the switch fluorescence ratio was 0.998. Work on TGCGCTACT yielded a switch fluorescence ratio of 1.24. Sequence TGCGGAAATG has a switch fluorescence ratio of 1. In the case of TGCGGACAAT, the switch fluorescence ratio is reported as 1.04. Work on TGCGGGGTGT yielded a switch fluorescence ratio of 1.01. Sequence TGCGGTACTG has a switch fluorescence ratio of 1.08. For TGCGGTTTGG, the switch fluorescence ratio was 1.01. TGCGTACTCT showed a switch fluorescence ratio of 1.1. With TGCGTGCTAC the switch fluorescence ratio was 1.13. In the case of TGCGTGGTGA, the switch fluorescence ratio is reported as 1.01. With TGCGTTAACC the switch fluorescence ratio was 0.998. Sequence TGCGTTTCTA has a switch fluorescence ratio of 0.969. For TGCTACTGGA, the switch fluorescence ratio was 0.942. TGCTAGAACA gave a switch fluorescence ratio of 1.01. With TGCTAGGGT the switch fluorescence ratio was 1.24. Sequence TGCTAGTAAT has a switch fluorescence ratio of 1.04. With TGCTATACGT the switch fluorescence ratio was 1.24. Sequence TGCTATTACG has a switch fluorescence ratio of 1.04. TGCTCAAGTA gave a switch fluorescence ratio of 0.985. TGCTCAGAGG was tested, and the switch fluorescence ratio was 1.01. With TGCTCCATTT the switch fluorescence ratio was 0.985. Sequence TGCTCGCCCT has a switch fluorescence ratio of 1.01. Sequence TGCTCGCGGG has a switch fluorescence ratio of 1.08. Sequence TGCTCGCTAG has a switch fluorescence ratio of 0.992. Work on TGCTCGCTTT yielded a switch fluorescence ratio of 1.03. TGCTCTGGGC showed a switch fluorescence ratio of 1.04. TGCTCTTATT showed a switch fluorescence ratio of 1.06. With TGCTCTTCGG the switch fluorescence ratio was 0.972. Work on TGCTGAAGTA yielded a switch fluorescence ratio of 1.03. In the case of TGCTGATACA, the switch fluorescence ratio is reported as 1.04. In the case of TGCTGCACCT, the switch fluorescence ratio is reported as 1.13. With TGCTGCGTA the switch fluorescence ratio was 0.955. TGCTGCGTCG gave a switch fluorescence ratio of 0.981. Sequence TGCTGGAGAG has a switch fluorescence ratio of 0.997. Work on TGCTGGGCAC yielded a switch fluorescence ratio of 1.02. In the case of TGCTGGTAA, the switch fluorescence ratio is reported as 0.944. With TGCTGGTTGC the switch fluorescence ratio was 0.959. TGCTTCTGAG gave a switch fluorescence ratio of 1.03. For TGCTTGTGAC, the switch fluorescence ratio was 1.01. In the case of TGCTTTATGG, the switch fluorescence ratio is reported as 0.987. TGCTTTCTGT showed a switch fluorescence ratio of 0.993. TGCTTTTAGT gave a switch fluorescence ratio of 0.993. Sequence TGGAAACCGT has a switch fluorescence ratio of 1.13. Work on TGGAAACGGA yielded a switch fluorescence ratio of 0.985. TGGAAAGGT showed a switch fluorescence ratio of 0.959. In the case of TGGAAATGTT, the switch fluorescence ratio is reported as 1. With TGGAACCGTT the switch fluorescence ratio was 0.995. Work on TGGAACTACT yielded a switch fluorescence ratio of 1. TGGAAGAGCA showed a switch fluorescence ratio of 0.979. TGGAAGCG gave a switch fluorescence ratio of 0.972. TGGAAGGGAT was tested, and the switch fluorescence ratio was 0.996. Work on TGGAAT yielded a switch fluorescence ratio of 0.976. Sequence TGGAATAAAT has a switch fluorescence ratio of 0.991. For TGGAATACCC, the switch fluorescence ratio was 1.22. In the case of TGGAATATCC, the switch fluorescence ratio is reported as 1.03. In the case of TGGAATCTAT, the switch fluorescence ratio is reported as 0.93. TGGAATTTGT was tested, and the switch fluorescence ratio was 1. Work on TGGACACTAC yielded a switch fluorescence ratio of 1.3. TGGACAGACC was tested, and the switch fluorescence ratio was 1.09. In the case of TGGACATTGT, the switch fluorescence ratio is reported as 0.986. TGGACCCATG showed a switch fluorescence ratio of 1.04. TGGACGAGAT was tested, and the switch fluorescence ratio was 1.07. Sequence TGGACGGGCG has a switch fluorescence ratio of 1.22. Work on TGGACTAAGT yielded a switch fluorescence ratio of 0.997. For TGGAGAAAT, the switch fluorescence ratio was 3.31. With TGGAGAGAGT the switch fluorescence ratio was 0.957. Sequence TGGAGGCACG has a switch fluorescence ratio of 1.05. Work on TGGAGGGCAT yielded a switch fluorescence ratio of 0.987. In the case of TGGAGGTCGA, the switch fluorescence ratio is reported as 0.978. With TGGAGTGGCC the switch fluorescence ratio was 1.07. TGGATACCCG gave a switch fluorescence ratio of 0.999. Sequence TGGATCGAT has a switch fluorescence ratio of 0.993. TGGATGTAAA showed a switch fluorescence ratio of 0.99. TGGATTAGGA gave a switch fluorescence ratio of 0.936. TGGATTCAGT was tested, and the switch fluorescence ratio was 0.987. Sequence TGGATTTGAG has a switch fluorescence ratio of 0.956. For TGGCAAGTTT, the switch fluorescence ratio was 1.06. Work on TGGCACGTTT yielded a switch fluorescence ratio of 0.973. TGGCATCCAG was tested, and the switch fluorescence ratio was 0.992. TGGCCAGGAG gave a switch fluorescence ratio of 1.34. In the case of TGGCCCTGAG, the switch fluorescence ratio is reported as 1.01. With TGGCCGCGGC the switch fluorescence ratio was 0.911. Work on TGGCCGGA yielded a switch fluorescence ratio of 1.05. In the case of TGGCCGGACA, the switch fluorescence ratio is reported as 0.961. Sequence TGGCCGGG has a switch fluorescence ratio of 1.01. Work on TGGCCTTCTT yielded a switch fluorescence ratio of 1.01. With TGGCCTTTAG the switch fluorescence ratio was 1.03. For TGGCGAAAAT, the switch fluorescence ratio was 0.996. Work on TGGCGATTAG yielded a switch fluorescence ratio of 0.985. TGGCGCATTG was tested, and the switch fluorescence ratio was 1.02. Sequence TGGCGCCCCG has a switch fluorescence ratio of 1.01. For TGGCGGGTGT, the switch fluorescence ratio was 1.03. TGGCGTCATA showed a switch fluorescence ratio of 1. TGGCGTCCAG was tested, and the switch fluorescence ratio was 0.994. TGGCTATCAG showed a switch fluorescence ratio of 1.01. TGGCTGAAAT showed a switch fluorescence ratio of 1.21. For TGGCTGTGAG, the switch fluorescence ratio was 1.01. With TGGCTGTGCT the switch fluorescence ratio was 0.937. Work on TGGGAAG yielded a switch fluorescence ratio of 0.999. TGGGAATGG showed a switch fluorescence ratio of 1.02. In the case of TGGGACACAC, the switch fluorescence ratio is reported as 1.35. TGGGACCAAG was tested, and the switch fluorescence ratio was 0.963. Work on TGGGATCGGG yielded a switch fluorescence ratio of 0.985. For TGGGATGAGG, the switch fluorescence ratio was 0.956. TGGGCAAATA gave a switch fluorescence ratio of 1.11. Sequence TGGGCATCGC has a switch fluorescence ratio of 1.03. Work on TGGGCATTTC yielded a switch fluorescence ratio of 4.25. Sequence TGGGCCCTTG has a switch fluorescence ratio of 0.983. With TGGGCCGGAC the switch fluorescence ratio was 0.959. Work on TGGGCGAAGT yielded a switch fluorescence ratio of 0.979. For TGGGCGACGG, the switch fluorescence ratio was 1.03. Sequence TGGGCGAGCA has a switch fluorescence ratio of 1.

— the supplement of paper PMC10126150
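Further: ATP exposure 15 min at 22 °C before imaging.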
